Measurements as given in the supplement of paper PMC8728848.
The list shows a part of the results.

What was measured:
Assay in all cases: glycan array binding signal (z-score within array); higher = stronger binding
Conditions in all cases: glycan notation: IUPAC condensed, linker removed
[1] = molecular target: Fuc(a1-2)Gal(b1-4)GlcNAc(b1-3)Gal(b1-4)GlcNAc(b1-3)Gal(b1-4)GlcNAc
Method in brief: (§1)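 The binding signal is a Z-score computed within each array. Data were drawn from 3228 arrays in the Consortium for Functional Glycomics database, restricted to those with a known protein sequence. Scores were averaged over arrays of the same protein sequence at different concentrations or buffers, and over linkers, and negative values can be taken as non-binding.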

[2] = molecular target: Fuc(a1-2)Gal(b1-4)GlcNAc(b1-3)GalNAc
Method in brief: as §1

[3] = molecular target: Fuc(a1-2)Gal(b1-4)GlcNAc(b1-3)[Fuc(a1-2)Gal(b1-4)GlcNAc(b1-6)]GalNAc
Method in brief: as §1

[4] = molecular target: Fuc(a1-2)Gal(b1-4)GlcNAc(b1-3)[Fuc(a1-3)[Gal(b1-4)]GlcNAc(b1-6)]Gal(b1-4)Glc
Method in brief: as §1

[5] = molecular target: Fuc(a1-2)Gal(b1-4)GlcNAc(b1-6)GalNAc
Method in brief: as §1

[6] = molecular target: Fuc(a1-2)Gal(b1-4)GlcNAc6S
Method in brief: as §1

[7] = molecular target: Fuc(a1-2)Gal(b1-4)[Fuc(a1-3)]GlcNAc
Method in brief: as §1

[8] = molecular target: Fuc(a1-2)Gal(b1-4)[Fuc(a1-3)]GlcNAc(b1-2)Man(a1-3)[Fuc(a1-2)Gal(b1-4)[Fuc(a1-3)]GlcNAc(b1-2)Man(a1-6)]Man(b1-4)GlcNAc(b1-4)[Fuc(a1-6)]GlcNAc
Method in brief: as §1

[9] = molecular target: Fuc(a1-2)Gal(b1-4)[Fuc(a1-3)]GlcNAc(b1-2)[Fuc(a1-2)Gal(b1-4)[Fuc(a1-3)]GlcNAc(b1-4)]Man(a1-3)[Fuc(a1-2)Gal(b1-4)[Fuc(a1-3)]GlcNAc(b1-2)Man(a1-6)]Man(b1-4)GlcNAc(b1-4)GlcNAc
Method in brief: as §1

[10] = molecular target: Fuc(a1-2)Gal(b1-4)[Fuc(a1-3)]GlcNAc(b1-3)Gal(b1-4)[Fuc(a1-3)]GlcNAc
Method in brief: as §1

[11] = molecular target: Fuc(a1-2)Gal(b1-4)[Fuc(a1-3)]GlcNAc(b1-3)Gal(b1-4)[Fuc(a1-3)]GlcNAc(b1-3)Gal(b1-4)[Fuc(a1-3)]GlcNAc
Method in brief: as §1

[12] = molecular target: Fuc(a1-2)Gal(b1-4)[Fuc(a1-3)]GlcNAc(b1-3)GalNAc
Method in brief: as §1

[13] = molecular target: Fuc(a1-2)Gal(b1-4)[Fuc(a1-3)]GlcNAc(b1-3)[Neu5Ac(a2-6)Gal(b1-4)GlcNAc(b1-6)]Gal(b1-4)Glc
Method in brief: as §1

[14] = molecular target: Fuc(a1-2)Gal3S(b1-4)GlcNAc
Method in brief: as §1

[15] = molecular target: Fuc(a1-2)Gal6S(b1-3)GlcNAc
Method in brief: as §1

[16] = molecular target: Fuc(a1-2)Gal6S(b1-3)GlcNAc6S
Method in brief: as §1

Fuc(a1-2)Gal6S(b1-4)Glc = molecular target: Fuc(a1-2)Gal6S(b1-4)Glc
Method in brief: as §1

[17] = molecular target: Fuc(a1-2)Gal6S(b1-4)Glc6S
Method in brief: as §1

Fuc(a1-2)[Gal(a1-3)]Gal = molecular target: Fuc(a1-2)[Gal(a1-3)]Gal
Method in brief: as §1

[18] = molecular target: Fuc(a1-2)[Gal(a1-3)]Gal(b1-3)GalNAc
Method in brief: as §1

[19] = molecular target: Fuc(a1-2)[Gal(a1-3)]Gal(b1-3)GalNAc(b1-3)Gal(a1-4)Gal(b1-4)Glc
Method in brief: as §1

[20] = molecular target: Fuc(a1-2)[Gal(a1-3)]Gal(b1-3)GlcNAc
Method in brief: as §1

[21] = molecular target: Fuc(a1-2)[Gal(a1-3)]Gal(b1-3)GlcNAc(b1-2)Man(a1-3)[Fuc(a1-2)[Gal(a1-3)]Gal(b1-3)GlcNAc(b1-2)Man(a1-6)]Man(b1-4)GlcNAc(b1-4)GlcNAc
Method in brief: as §1

[22] = molecular target: Fuc(a1-2)[Gal(a1-3)]Gal(b1-3)GlcNAc(b1-2)Man(a1-3)[Fuc(a1-2)[Gal(a1-3)]Gal(b1-3)GlcNAc(b1-2)Man(a1-6)]Man(b1-4)GlcNAc(b1-4)[Fuc(a1-6)]GlcNAc
Method in brief: as §1

[23] = molecular target: Fuc(a1-2)[Gal(a1-3)]Gal(b1-3)GlcNAc(b1-3)GalNAc
Method in brief: as §1

[24] = molecular target: Fuc(a1-2)[Gal(a1-3)]Gal(b1-3)GlcNAc(b1-6)GalNAc
Method in brief: as §1

[25] = molecular target: Fuc(a1-2)[Gal(a1-3)]Gal(b1-4)Glc
Method in brief: as §1

[26] = molecular target: Fuc(a1-2)[Gal(a1-3)]Gal(b1-4)GlcNAc
Method in brief: as §1

[27] = molecular target: Fuc(a1-2)[Gal(a1-3)]Gal(b1-4)GlcNAc(b1-2)Man
Method in brief: as §1

[28] = molecular target: Fuc(a1-2)[Gal(a1-3)]Gal(b1-4)GlcNAc(b1-2)Man(a1-3)[Fuc(a1-2)[Gal(a1-3)]Gal(b1-4)GlcNAc(b1-2)Man(a1-6)]Man(b1-4)GlcNAc(b1-4)GlcNAc
Method in brief: as §1

[29] = molecular target: Fuc(a1-2)[Gal(a1-3)]Gal(b1-4)GlcNAc(b1-2)Man(a1-3)[Fuc(a1-2)[Gal(a1-3)]Gal(b1-4)GlcNAc(b1-2)Man(a1-6)]Man(b1-4)GlcNAc(b1-4)[Fuc(a1-6)]GlcNAc
Method in brief: as §1

[30] = molecular target: Fuc(a1-2)[Gal(a1-3)]Gal(b1-4)GlcNAc(b1-3)GalNAc
Method in brief: as §1

[31] = molecular target: Fuc(a1-2)[Gal(a1-3)]Gal(b1-4)GlcNAc(b1-3)[Fuc(a1-2)[Gal(a1-3)]Gal(b1-4)GlcNAc(b1-6)]GalNAc
Method in brief: as §1

[32] = molecular target: Fuc(a1-2)[Gal(a1-3)]Gal(b1-4)GlcNAc(b1-6)GalNAc
Method in brief: as §1

[33] = molecular target: Fuc(a1-2)[Gal(a1-3)]Gal(b1-4)[Fuc(a1-3)]Glc
Method in brief: as §1

[34] = molecular target: Fuc(a1-2)[Gal(a1-3)]Gal(b1-4)[Fuc(a1-3)]GlcNAc
Method in brief: as §1

[35] = molecular target: Fuc(a1-2)[Gal(a1-3)]Gal(b1-4)[Fuc(a1-3)]GlcNAc(b1-3)GalNAc
Method in brief: as §1

B1: PX14367B-bvu-516-23-516 (Bacteroides vulgatus) (protein)
chain: LDTIPTTYVDAGSVFGKTGDAEKVLNGGWNYLMETFNSYANPGYGAMLRANDAMGSDVVLNSKYGFRTHNEFSAIYGKGGTNTLSWLLAYRVINDCNGVLDNIDAAEGTQADRNRIKGQALALRGFLYLHLASCYSFAIDKDPDAVCAPIYTQSTDETIAAEGKPASSVSEVYAQSINDLEEALELIPETYVRDAKHKIDNEVVLGILSRACLYARQWEKAKTYSDKLLAKDNYLMTESEYKAGFNSVDNKEWIWGHAQTNDQSNASYQFHYLDTTTKGSYYYSFNVDPYFRDLFEDGDYRKEMLFWATDPGADVESAAYVWMRNSKFRFRDIENQLGDIVLMRVAEIYLINAEAKAHLNDPDAINKLNDLKTARGAKTIHTNLSQQDLLETIWLERRKELWGEGFSLIDIIRNQQTVVRNAYPEGPIDYIYTDENGQTHTLKKKTQGHRFFNFPDKSAFCPNSKYYLYRITDSEELANKNLYKDHPKLSIYTK
glycan array binding signal (z-score) [1]: -0.299
glycan array binding signal (z-score) [2]: -0.282
glycan array binding signal (z-score) [3]: -0.275
glycan array binding signal (z-score) [4]: -0.367
glycan array binding signal (z-score) [5]: -0.204
glycan array binding signal (z-score) [6]: -0.225
glycan array binding signal (z-score) [7]: -0.35
glycan array binding signal (z-score) [8]: -0.29
glycan array binding signal (z-score) [9]: -0.342
glycan array binding signal (z-score) [10]: -0.261
glycan array binding signal (z-score) [11]: -0.234
glycan array binding signal (z-score) [12]: 0.799
glycan array binding signal (z-score) [13]: -0.236
glycan array binding signal (z-score) [14]: -0.309
glycan array binding signal (z-score) [15]: -0.4
glycan array binding signal (z-score) [16]: -0.232
glycan array binding signal (z-score) (Fuc(a1-2)Gal6S(b1-4)Glc): -0.343
glycan array binding signal (z-score) [17]: -0.151
glycan array binding signal (z-score) (Fuc(a1-2)[Gal(a1-3)]Gal): -0.296
glycan array binding signal (z-score) [18]: -0.219
glycan array binding signal (z-score) [19]: -0.329
glycan array binding signal (z-score) [20]: -0.288
glycan array binding signal (z-score) [21]: 0.559
glycan array binding signal (z-score) [22]: -0.25
glycan array binding signal (z-score) [23]: -0.384
glycan array binding signal (z-score) [24]: -0.326
glycan array binding signal (z-score) [25]: -0.376
glycan array binding signal (z-score) [26]: -0.332
glycan array binding signal (z-score) [27]: -0.324
glycan array binding signal (z-score) [28]: 2.56
glycan array binding signal (z-score) [29]: -0.066
glycan array binding signal (z-score) [30]: -0.334
glycan array binding signal (z-score) [31]: -0.244
glycan array binding signal (z-score) [32]: -0.278
glycan array binding signal (z-score) [33]: -0.383
glycan array binding signal (z-score) [34]: -0.255
glycan array binding signal (z-score) [35]: 1.33
